These results are taken from the supplement of paper PMC4604168 (melanoma cell lines).

Each structure is given as a SMILES string. Some of the results follow. Most values come without repeats; read them as rough.
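Note: cells treated in 1,536-well plates, then fixed and DAPI-stained, with nuclei counted from automated high-throughput microscope images.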

One experiment relates to IPC-298. Briefly: cell count relative to DMSO control; melanoma cells; higher = more viable cells. Conditions: library dose: standard library concentration; 72 h.
In turn, `Nc1ccn([C@@H]2O[C@H](CO)[C@@H](O)C2(F)F)c(=O)n1` [gemcitabine] + OCc1c[nH]c2ccccc12 [Indole-3-carbinol] (first compound 0.002 µM, partner dose 4 µM) registered a cell count of 48.2%. For `Nc1ncn([C@H]2C[C@H](O)[C@@H](CO)O2)c(=O)n1` [decitabine] + O=C(Nc1ccccc1)c1cc([N+](=O)[O-])ccc1Cl [GW9662] (first compound 0.5 µM, partner dose 10 µM), the cell count was 59.8%. `Nc1ccn([C@@H]2O[C@H](CO)[C@@H](O)C2(F)F)c(=O)n1` [gemcitabine] + NC(=O)Nc1cc(-c2cccc(F)c2)sc1C(=O)N[C@H]1CCCNC1 [AZD7762] (first compound 0.002 µM, partner dose 0.1 µM): the cell count amounted to 22.9%. In the case of `Nc1nc(F)nc2c1ncn2[C@@H]1O[C@H](CO)[C@@H](O)[C@@H]1O` [fludarabine] + O=c1cc(-c2cccc3c2Sc2ccccc2S3)oc(N2CCOCC2)c1 [KU55933] (first compound 1 µM, partner dose 5 µM), the cell count stood at 74.9%.

Regarding `CC(=O)O[C@@]12CO[C@@H]1C[C@H](O)[C@@]1(C)C(=O)[C@H](O)C3=C(C)[C@@H](OC(=O)[C@H](O)[C@@H](NC(=O)OC(C)(C)C)c4ccccc4)C[C@@](O)([C@@H](OC(=O)c4ccccc4)[C@H]21)C3(C)C` [Docetaxel] + CO[C@H]1C[C@@H]2CC[C@@H](C)[C@@](O)(O2)C(=O)C(=O)N2CCCC[C@H]2C(=O)O[C@H]([C@H](C)C[C@@H]2CC[C@@H](OCCO)[C@H](OC)C2)CC(=O)[C@H](C)/C=C(\C)[C@@H](O)[C@@H](OC)C(=O)[C@H](C)C[C@H](C)/C=C/C=C/C=C/1C [everolimus] (first compound 0.0005 µM, partner dose 0.1 µM), the cell count turned out to be 27.7%.

Regarding `CC(=O)O[C@@]12CO[C@@H]1C[C@H](O)[C@@]1(C)C(=O)[C@H](O)C3=C(C)[C@@H](OC(=O)[C@H](O)[C@@H](NC(=O)OC(C)(C)C)c4ccccc4)C[C@@](O)([C@@H](OC(=O)c4ccccc4)[C@H]21)C3(C)C` [Docetaxel] + O=C(CCCCCCC(=O)Nc1ccccc1)NO [vorinostat] (first compound 0.0005 µM, partner dose 0.4 µM), the cell count worked out at 55.6%. On to `Nc1ccn([C@@H]2O[C@H](CO)[C@@H](O)C2(F)F)c(=O)n1` [gemcitabine] + c1cc(-c2cnn3cc(-c4ccc(OCCN5CCCCC5)cc4)cnc23)ccn1 [Dorsomorphin] (first compound 0.002 µM, partner dose 2 µM), for which the cell count came to 55.4%.

The test system of the next experiment is IST-MEL1. The description is as above. Conditions: library dose: standard library concentration; 72 h.
As to `Nc1ncn([C@H]2C[C@H](O)[C@@H](CO)O2)c(=O)n1` [decitabine] + C#Cc1cccc(Nc2ncnc3cc(OCCOC)c(OCCOC)cc23)c1 [erlotinib] (first compound 0.5 µM, partner dose 4 µM), the cell count turned out to be 75.7%. In turn, `CC(=O)O[C@@]12CO[C@@H]1C[C@H](O)[C@@]1(C)C(=O)[C@H](O)C3=C(C)[C@@H](OC(=O)[C@H](O)[C@@H](NC(=O)OC(C)(C)C)c4ccccc4)C[C@@](O)([C@@H](OC(=O)c4ccccc4)[C@H]21)C3(C)C` [Docetaxel] + OCc1c[nH]c2ccccc12 [Indole-3-carbinol] (first compound 0.0005 µM, partner dose 4 µM) had a cell count of 35.3%. Turning to `CO[C@H]1C[C@@H]2CC[C@@H](C)[C@@](O)(O2)C(=O)C(=O)N2CCCC[C@H]2C(=O)O[C@H]([C@H](C)C[C@@H]2CC[C@@H](OCCO)[C@H](OC)C2)CC(=O)[C@H](C)/C=C(\C)[C@@H](O)[C@@H](OC)C(=O)[C@H](C)C[C@H](C)/C=C/C=C/C=C/1C` [everolimus] + COc1cc(Nc2ncc(F)c(Nc3ccc4c(n3)NC(=O)C(C)(C)O4)n2)cc(OC)c1OC [Tamatinib] (first compound 0.1 µM, partner dose 2 µM), the cell count came to 56.5%. As for `Nc1ncn([C@H]2C[C@H](O)[C@@H](CO)O2)c(=O)n1` [decitabine] + CN(C)S(=O)(=O)c1ccc2c(c1)/C(=C/c1cc3c([nH]1)CCCC3)C(=O)N2 [SU6656] (first compound 0.5 µM, partner dose 2 µM), the cell count amounted to 52.7%. `CO[C@H]1C[C@@H]2CC[C@@H](C)[C@@](O)(O2)C(=O)C(=O)N2CCCC[C@H]2C(=O)O[C@H]([C@H](C)C[C@@H]2CC[C@@H](OCCO)[C@H](OC)C2)CC(=O)[C@H](C)/C=C(\C)[C@@H](O)[C@@H](OC)C(=O)[C@H](C)C[C@H](C)/C=C/C=C/C=C/1C` [everolimus] + COc1cc2ncnc(Nc3ccc(Oc4ccccc4)cc3)c2cc1OC [SrcI1] (first compound 0.1 µM, partner dose 10 µM) displayed a cell count of 82%. Take `CO[C@H]1C[C@@H]2CC[C@@H](C)[C@@](O)(O2)C(=O)C(=O)N2CCCC[C@H]2C(=O)O[C@H]([C@H](C)C[C@@H]2CC[C@@H](OCCO)[C@H](OC)C2)CC(=O)[C@H](C)/C=C(\C)[C@@H](O)[C@@H](OC)C(=O)[C@H](C)C[C@H](C)/C=C/C=C/C=C/1C` [everolimus] + COc1ccc(-c2ccc3c(N4CCOCC4)nc(N4C[C@@H](C)O[C@@H](C)C4)nc3n2)cc1CO [KU0063794] (first compound 0.1 µM, partner dose 0.1 µM): the cell count was determined as 65.1%. Consider `CC(=O)c1c(C)c2cnc(Nc3ccc(N4CCNCC4)cn3)nc2n(C2CCCC2)c1=O` [palbociclib] + COc1ccc(Cl)c(Nc2nc3ccccc3nc2NS(=O)(=O)c2cccc(NC(=O)C(C)(C)N)c2)c1 [XL147] (first compound 0.2 µM, partner dose 4 µM), for which the cell count was found to be 51.4%. On to `CC(=O)c1c(C)c2cnc(Nc3ccc(N4CCNCC4)cn3)nc2n(C2CCCC2)c1=O` [palbociclib] + COc1ccc2c(c1)CCC1C2CCC2(C)C(NCCCCCCN3C(=O)C=CC3=O)CCC12 [U73122] (first compound 0.2 µM, partner dose 2 µM), for which the cell count came to 97.5%. Consider `Nc1ccn([C@@H]2O[C@H](CO)[C@@H](O)C2(F)F)c(=O)n1` [gemcitabine] + CO[C@@H]1[C@H](N(C)C(=O)c2ccccc2)C[C@H]2O[C@]1(C)n1c3ccccc3c3c4c(c5c6ccccc6n2c5c31)C(=O)NC4 [Midostaurin] (first compound 0.002 µM, partner dose 0.4 µM), for which the cell count turned out to be 92.3%.

Turning to `Nc1ccn([C@@H]2O[C@H](CO)[C@@H](O)C2(F)F)c(=O)n1` [gemcitabine] + Cc1nc(Nc2ncc(C(=O)Nc3c(C)cccc3Cl)s2)cc(N2CCN(CCO)CC2)n1 [dasatanib] (first compound 0.002 µM, partner dose 0.02 µM), the cell count stood at 39.3%. Take `CC(=O)O[C@@]12CO[C@@H]1C[C@H](O)[C@@]1(C)C(=O)[C@H](O)C3=C(C)[C@@H](OC(=O)[C@H](O)[C@@H](NC(=O)OC(C)(C)C)c4ccccc4)C[C@@](O)([C@@H](OC(=O)c4ccccc4)[C@H]21)C3(C)C` [Docetaxel] + Cc1cc(Nc2cc(N3CCN(C)CC3)nc(/C=C/c3ccccc3)n2)n[nH]1 [ENMD2076] (first compound 0.0005 µM, partner dose 0.2 µM): the cell count amounted to 39.3%. The same measure, in the same setting: for `CO[C@H]1C[C@@H]2CC[C@@H](C)[C@@](O)(O2)C(=O)C(=O)N2CCCC[C@H]2C(=O)O[C@H]([C@H](C)C[C@@H]2CC[C@@H](OCCO)[C@H](OC)C2)CC(=O)[C@H](C)/C=C(\C)[C@@H](O)[C@@H](OC)C(=O)[C@H](C)C[C@H](C)/C=C/C=C/C=C/1C` [everolimus] + NCC(=O)Nc1ccc(-n2nc(C(F)(F)F)cc2-c2ccc3c(ccc4ccccc43)c2)cc1 [OSU03012] (first compound 0.1 µM, partner dose 5 µM) the value was 77.1%; for `CC(=O)c1c(C)c2cnc(Nc3ccc(N4CCNCC4)cn3)nc2n(C2CCCC2)c1=O` [palbociclib] + Oc1cc(-c2nc(-c3ccccc3)[nH]c2-c2ccncc2)ccc1Cl [L779450] (first compound 0.2 µM, partner dose 1 µM), 75.7%.

As to `Nc1ccn([C@@H]2O[C@H](CO)[C@@H](O)C2(F)F)c(=O)n1` [gemcitabine] + CC1(C)NC(=O)N(c2ccc([N+](=O)[O-])c(C(F)(F)F)c2)C1=O [nilutamide] (first compound 0.002 µM, partner dose 5 µM), the cell count is 50.6%. Consider `CO[C@H]1C[C@@H]2CC[C@@H](C)[C@@](O)(O2)C(=O)C(=O)N2CCCC[C@H]2C(=O)O[C@H]([C@H](C)C[C@@H]2CC[C@@H](OCCO)[C@H](OC)C2)CC(=O)[C@H](C)/C=C(\C)[C@@H](O)[C@@H](OC)C(=O)[C@H](C)C[C@H](C)/C=C/C=C/C=C/1C` [everolimus] + C=CCNC1=C2C[C@@H](C)C[C@H](OC)[C@H](O)[C@@H](C)/C=C(\C)[C@H](OC(N)=O)[C@@H](OC)/C=C\C=C(/C)C(=O)NC(=CC1=O)C2=O [Tanespimycin] (first compound 0.1 µM, partner dose 0.01 µM), for which the cell count was 35.9%.

In turn, `CC(=O)O[C@@]12CO[C@@H]1C[C@H](O)[C@@]1(C)C(=O)[C@H](O)C3=C(C)[C@@H](OC(=O)[C@H](O)[C@@H](NC(=O)OC(C)(C)C)c4ccccc4)C[C@@](O)([C@@H](OC(=O)c4ccccc4)[C@H]21)C3(C)C` [Docetaxel] + CC1(C)NC(=O)N(c2ccc([N+](=O)[O-])c(C(F)(F)F)c2)C1=O [nilutamide] (first compound 0.0005 µM, partner dose 5 µM) gave a cell count of 31.4%.
